86 sequences from the supplement of paper PMC3334620 can be followed below.

Whole data set: some 33,000 sequences, median “E-score (-0.5 to 0.5)” near -0.013, cut for the highest 2% near 0.3. The list shows a part of the results.

The target in the assay is T1, Msn1 (UniProt P22148).
T1 sequence: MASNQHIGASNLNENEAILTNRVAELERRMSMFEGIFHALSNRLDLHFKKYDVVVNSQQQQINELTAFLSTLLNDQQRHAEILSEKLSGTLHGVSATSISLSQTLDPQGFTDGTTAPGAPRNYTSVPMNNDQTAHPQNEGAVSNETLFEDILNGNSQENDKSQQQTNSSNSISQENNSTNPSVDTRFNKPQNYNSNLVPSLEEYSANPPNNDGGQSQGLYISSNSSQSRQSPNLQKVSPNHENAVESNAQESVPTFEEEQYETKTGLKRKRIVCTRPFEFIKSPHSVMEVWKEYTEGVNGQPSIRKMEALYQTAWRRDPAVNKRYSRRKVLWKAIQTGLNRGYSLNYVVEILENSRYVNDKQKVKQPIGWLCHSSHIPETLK
The assay is described as follows: PBM E-score (8-mer binding enrichment) (E-score (-0.5 to 0.5)); higher = stronger / more preferred TF binding; most listed sequences are background and not binding sites. Conditions: protein concentration: 200 nM; construct: GST-full length. In short, it runs like this: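 Each ungapped eight-base word and its reverse complement, pooled, received an E-score from the Universal PBM Analysis Suite. Underlying scans, normalised with masliner, recorded fluorescent anti-GST bound to GST-tagged yeast transcription factors. These were applied at about 100-200 nM to universal all-10-mer Agilent arrays double-stranded by primer extension.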
For GAAGCATA, the “PBM E-score” value was -0.171. On to GCTATTTA, for which the “PBM E-score” value amounted to 0.0605. The figure for ATGACGGA is 0.0931. As for CGCGTTCC, the figure is -0.0769; as for ATTCGACC, -0.0378; as for TGTAATAA, 0.0141. As for CTGATGAA, the figure is -0.0521; as for AACCTGTC, 0.119.

For the sequence ATAGCCAT, the “PBM E-score” value was -0.0927.

As for AGTTGGGA, the “PBM E-score” value is 0.0253.

In the case of GAGTGAGA, the “PBM E-score” value was -0.113. On to ATAGCTCG, for which the “PBM E-score” value was -0.0341. The figure for CTACCAGA is 0.0598; for ACGACACA it is 0.172.

With CGCAGCCA, the “PBM E-score” value is -0.171. The figure for ATGCGTAC is 0.161; for TCACAAGA it is -0.0355. Turning to CGCCGAAC, the “PBM E-score” value amounted to 0.14.

For GTTTGCGA, the “PBM E-score” value was 0.192. As for CAAGGTGA, the figure is 0.0693; as for ATAACCGA, 0.0218.

Regarding GCAGTGCC, the “PBM E-score” value was -0.3. On to ATATGTCA, for which the “PBM E-score” value was found to be 0.401. As to CGGCAGAA, the “PBM E-score” value was -0.0946. The figure for GGTCACGA is 0.0015; for TGGAACCA it is 0.0913; for AAACGATT it is 0.15. As for CAGCGAGG, the figure is -0.0858; as for GCATCTGA, -0.352; as for CAAGTAAG, 0.0617. With ACGAACCA, the “PBM E-score” value is 0.232. On to CCATTTGC, for which the “PBM E-score” value was 0.101. In the case of AGATTCCT, the “PBM E-score” value is -0.0666. As for GCCTATAC, the figure is -0.109; as for CCATACTC, 0.00131. As for CATTTGCA, the “PBM E-score” value came out at 0.0736. As to AAGTTGAA, the “PBM E-score” value stood at 0.00886.

Consider AGAACCTA, for which the “PBM E-score” value was -0.101.

ATGTCTCG: the “PBM E-score” value was 0.333. The figure for ACCATCTA is -0.171; for GCCTATGA it is -0.107. The figure for AGTTCAAG is 0.154.

AGCGCGCA: the “PBM E-score” value turned out to be 0.171. The figure for AATCCCTC is -0.126. On to CGAGCTTC, for which the “PBM E-score” value was 0.142. As for AATTGAAC, the figure is 0.0221. The figure for GAGCCCCA is -0.226. Consider AGCGGCAA, for which the “PBM E-score” value is -0.114.

Consider ACTATAGA, for which the “PBM E-score” value was 0.0421. The figure for ACCCCTGG is -0.224; for CCATACAG it is -0.107; for GTCACGCA it is 0.107. As for ACCACCGG, the figure is -0.197; as for CACCACTC, -0.0904. As for CAGCAAGC, the figure is -0.129; as for ACTCACTC, 0.0229. As to AATCCAAT, the “PBM E-score” value was -0.0132.

In the case of GCCATAAA, the “PBM E-score” value amounted to 0.0477. As for GGTAAACC, the figure is -0.1; as for CCCAAGAA, -0.00975. As to GTTATAAC, the “PBM E-score” value was -0.0383. In the case of ATAACTCG, the “PBM E-score” value is 0.0772.

Regarding GATGGATA, the “PBM E-score” value is 0.00702. As to ACCTTACT, the “PBM E-score” value stood at 0.00176.

Turning to TAAGGCGA, the “PBM E-score” value is -0.0721.

On to AACAGAGT, for which the “PBM E-score” value stood at 0.128. The figure for GTACGTAA is 0.132; for AATGCGAA it is 0.0496. As for AAGAAAAA, the figure is 0.0635; as for ATGACCTG, 0.0774; as for GCGCTGAA, -0.222.

CCTCAATA: the “PBM E-score” value is -0.0793. As for CTACTGAG, the figure is -0.0811; as for TCCAAAGA, 0.207; as for ATTACTGA, -0.0356. As for ACGCACCG, the figure is 0.029; as for CGTTGCGA, -0.0915; as for GGACTACC, -0.292. As for ACGCCCAC, the figure is -0.114; as for AAGATGTG, 0.0907; as for GGCGTCTA, -0.23. With TTAGACAA, the “PBM E-score” value was 0.394. Take GGTTGTGA: the “PBM E-score” value worked out at 0.031.

For TATCGTGA, the “PBM E-score” value is -0.0106. For the sequence AAACACCT, the “PBM E-score” value is 0.0598. As for AGGTGTAC, the figure is 0.00937.
